Reference: patent publication US20230301999A1, “METHODS OF TREATING GOUT” (Horizon Therapeutics USA, Inc., priority 2020, published 2023)

Tests used:
[1] = tested on: adult patients with uncontrolled gout; experiment: Open-label study: Health Assessment Questionnaire (HAQ-DI, HAQ pain, HAQ health); assay type: in vivo, human; conditions: mITT Population
Experimental: Quality-of-Life Assessment: The HAQ was administered at any point during the study. The HAQ-DI is a self-report functional status instrument that can be filled out by a subject in less than 5 minutes and requires 1 minute to score. The index measures disability over the past week by asking a total of 20 questions covering 8 domains of function: dressing and grooming, arising, eating, walking, hygiene, reach, grip, and usual activities. There are at least 2 questions in each domain and the 8 domains represent a comprehensive set of functional activities. The HAQ-DI is calculated by scoring the answer to each question in the HAQ from 0 to 3, with 0 representing the ability to do without any difficulty, and 3 representing inability to do. Any activity that requires assistance from another individual or requires the use of an assistive device raises a 0 or 1 score to a 2. The highest score for each of the 8 domains is summed (range from 0 to 24) and divided by 8 to yield, on a scale with 25 possible values, a Functional Disability Index with a range from 0 to 3. The disability index is based on the number of domains answered and is computed only if the subject completes answers to at least 6 domains. The HAQ pain scale asks subjects to record how much pain they have had in the past week on a scale of 0 to 100, where zero represents “no pain” and 100 represents “severe pain”. The HAQ health scale is a measure of overall health. Subjects are asked to rate how well they are doing on a score of 0 to 100, where zero represents “very well” and 100 represents “very poor” health.
Quality of life was assessed using the HAQ.

[2] = tested on: adult patients with uncontrolled gout; experiment: Open-label study: tender joint count (68-point) and swollen joint count (66-point); assay type: in vivo, human; conditions: mITT Population
[3] = Day 1, change from Methotrexate Baseline
[4] = Day 1, Methotrexate Baseline table
[5] = Early Termination Visit, change from Methotrexate Baseline
[6] = Early Termination Visit, change from Pegloticase Baseline
[7] = Early Termination Visit, Methotrexate Baseline table
[8] = Early Termination Visit, Pegloticase Baseline table
[9] = End of Pegloticase Infusions Visit, change from Methotrexate Baseline
[10] = End of Pegloticase Infusions Visit, change from Pegloticase Baseline
[11] = End of Pegloticase Infusions Visit, Methotrexate Baseline table
[12] = End of Pegloticase Infusions Visit, Pegloticase Baseline table
[13] = Week 14, change from Methotrexate Baseline
[14] = Week 14, change from Pegloticase Baseline
[15] = Week 14, Methotrexate Baseline table
[16] = Week 14, Pegloticase Baseline table
[17] = Week 24, change from Methotrexate Baseline
[18] = Week 24, change from Pegloticase Baseline
[19] = Week 24, Methotrexate Baseline table
[20] = Week 24, Pegloticase Baseline table
[21] = Week 36, change from Methotrexate Baseline
[22] = Week 36, change from Pegloticase Baseline
[23] = Week 36, Methotrexate Baseline table
[24] = Week 36, Pegloticase Baseline table
[25] = Week 52/ET, change from Pegloticase Baseline
[26] = Week 52/ET, Methotrexate Baseline table
[27] = Week 52/ET, Pegloticase Baseline table

pegloticase
HAQ-DI, Change from Baseline, Median [1, 3]: 0.0
HAQ-Health, Change from Baseline, Median [1, 3]: 10.0
HAQ-Pain, Change from Baseline, Median [1, 3]: 0.0
HAQ-DI, Observed, Median [1, 4]: 0.5
HAQ-Pain, Observed, Median [1, 4]: 40.0
HAQ-DI, Change from Baseline, Median [1, 5]: −0.3
HAQ-Health, Change from Baseline, Median [1, 5]: 8.0
HAQ-Pain, Change from Baseline, Median [1, 5]: 7.0
HAQ-DI, Change from Baseline, Median [1, 6]: 0.1
HAQ-Health, Change from Baseline, Median [1, 6]: −10.0
HAQ-Pain, Change from Baseline, Median [1, 6]: −10.0
HAQ-DI, Observed, Median [1, 7]: 0.6
HAQ-Health, Observed, Median [1, 7]: 10.0
HAQ-Pain, Observed, Median [1, 7]: 40.0
HAQ-DI, Observed, Median [1, 8]: 0.6
HAQ-Health, Observed, Median [1, 8]: 10.0
HAQ-Pain, Observed, Median [1, 8]: 40.0
HAQ-DI, Change from Baseline, Median [1, 9]: −0.1
HAQ-Health, Change from Baseline, Mean (SD) [1, 9]: −80.0 (0.00)
HAQ-Health, Change from Baseline, Median [1, 9]: −80.0
HAQ-DI, Change from Baseline, Median [1, 10]: −0.1
HAQ-DI, Observed, Median [1, 11]: 0.1
HAQ-Health, Observed, Mean (SD) [1, 11]: 0.0 (0.00)
HAQ-Health, Observed, Median [1, 11]: 0.0
HAQ-Pain, Observed, Median [1, 11]: 40.0
HAQ-DI, Observed, Median [1, 12]: 0.1
HAQ-Health, Observed, Mean (SD) [1, 12]: 0.0 (0.00)
HAQ-Health, Observed, Median [1, 12]: 0.0
HAQ-Pain, Observed, Median [1, 12]: 40.0
HAQ-DI, Change from Baseline, Median [1, 13]: 0.0
HAQ-Health, Change from Baseline, Median [1, 13]: −5.0
HAQ-DI, Change from Baseline, Median [1, 14]: 0.0
HAQ-Health, Change from Baseline, Median [1, 14]: −1.0
HAQ-DI, Observed, Median [1, 15]: 0.5
HAQ-DI, Observed, Median [1, 16]: 0.5
HAQ-DI, Change from Baseline, Median [1, 17]: −0.1
HAQ-Health, Change from Baseline, Median [1, 17]: −40.0
HAQ-Pain, Change from Baseline, Median [1, 17]: −10.0
HAQ-DI, Change from Baseline, Median [1, 18]: −0.1
HAQ-Health, Change from Baseline, Median [1, 18]: −10.0
HAQ-Pain, Change from Baseline, Median [1, 18]: −10.0
HAQ-DI, Observed, Median [1, 19]: 0.1
HAQ-Health, Observed, Median [1, 19]: 10.0
HAQ-Pain, Observed, Median [1, 19]: 20.0
HAQ-DI, Observed, Median [1, 20]: 0.1
HAQ-Health, Observed, Median [1, 20]: 10.0
HAQ-Pain, Observed, Median [1, 20]: 20.0
HAQ-DI, Change from Baseline, Median [1, 21]: 0.0
HAQ-Health, Change from Baseline, Median [1, 21]: −10.0
HAQ-Pain, Change from Baseline, Median [1, 21]: −20.0
HAQ-DI, Change from Baseline, Median [1, 22]: −0.1
HAQ-Health, Change from Baseline, Median [1, 22]: −10.0
HAQ-Pain, Change from Baseline, Median [1, 22]: −20.0
HAQ-DI, Observed, Median [1, 23]: 0.1
HAQ-Health, Observed, Median [1, 23]: 10.0
HAQ-Pain, Observed, Median [1, 23]: 10.0
HAQ-DI, Observed, Median [1, 24]: 0.1
HAQ-Health, Observed, Median [1, 24]: 10.0
HAQ-Pain, Observed, Median [1, 24]: 10.0
HAQ-DI, Change from Baseline, Median ([1]; Week 52/ET, change from Methotrexate Baseline): −0.1
HAQ-DI, Change from Baseline, Median [1, 25]: −0.1
HAQ-Health, Change from Baseline, Median [1, 25]: 5.0
HAQ-DI, Observed, Median [1, 26]: 0.3
HAQ-Health, Observed, Median [1, 26]: 80.0
HAQ-Pain, Observed, Median [1, 26]: 1.0
HAQ-DI, Observed, Median [1, 27]: 0.3
HAQ-Health, Observed, Median [1, 27]: 80.0
HAQ-Pain, Observed, Median [1, 27]: 1.0
Swollen Joint Count, Change from Baseline, Median [2, 3]: 0.5
Tender Joint Count, Change from Baseline, Median [2, 3]: 0.0
Tender Joint Count, Observed, Median [2, 4]: 7.0
Swollen Joint Count, Change from Baseline, Median [2, 5]: 0.0
Tender Joint Count, Change from Baseline, Median [2, 5]: 2.0
Swollen Joint Count, Change from Baseline, Median [2, 6]: −4.0
Tender Joint Count, Change from Baseline, Median [2, 6]: −4.0
Swollen Joint Count, Observed, Median [2, 7]: 1.0
Tender Joint Count, Observed, Median [2, 7]: 3.0
Swollen Joint Count, Observed, Median [2, 8]: 1.0
Tender Joint Count, Observed, Median [2, 8]: 3.0
Swollen Joint Count, Change from Baseline, Median [2, 9]: −7.0
Swollen Joint Count, Change from Baseline, Median [2, 10]: −2.0
Tender Joint Count, Change from Baseline, Median [2, 10]: −3.0
Swollen Joint Count, Observed, Mean (SD) [2, 11]: 0.0 (0.00)
Swollen Joint Count, Observed, Median [2, 11]: 0.0
Tender Joint Count, Observed, Median [2, 11]: 2.0
Swollen Joint Count, Observed, Mean (SD) [2, 12]: 0.0 (0.00)
Swollen Joint Count, Observed, Median [2, 12]: 0.0
Tender Joint Count, Observed, Median [2, 12]: 2.0
Swollen Joint Count, Change from Baseline, Median [2, 13]: −2.0
Tender Joint Count, Change from Baseline, Median [2, 13]: 0.0
Tender Joint Count, Change from Baseline, Median [2, 14]: −5.0
Swollen Joint Count, Observed, Median [2, 15]: 0.0
Tender Joint Count, Observed, Median [2, 15]: 2.0
Swollen Joint Count, Observed, Median [2, 16]: 0.0
Tender Joint Count, Observed, Median [2, 16]: 2.0
Swollen Joint Count, Change from Baseline, Median [2, 17]: −3.0
Tender Joint Count, Change from Baseline, Median [2, 17]: −4.0
Swollen Joint Count, Change from Baseline, Median [2, 18]: −3.0
Tender Joint Count, Change from Baseline, Median [2, 18]: −4.0
Swollen Joint Count, Observed, Median [2, 19]: 0.0
Tender Joint Count, Observed, Median [2, 19]: 0.0
Swollen Joint Count, Observed, Median [2, 20]: 0.0
Tender Joint Count, Observed, Median [2, 20]: 0.0
Swollen Joint Count, Change from Baseline, Median [2, 21]: −3.0
Tender Joint Count, Change from Baseline, Median [2, 21]: −7.0
Swollen Joint Count, Change from Baseline, Median [2, 22]: −4.0
Tender Joint Count, Change from Baseline, Median [2, 22]: −4.0
Swollen Joint Count, Observed, Median [2, 23]: 0.0
Tender Joint Count, Observed, Median [2, 23]: 0.0
Swollen Joint Count, Observed, Median [2, 24]: 0.0
Tender Joint Count, Observed, Median [2, 24]: 0.0
Swollen Joint Count, Observed, Mean (SD) [2, 26]: 0.0 (0.00)
Swollen Joint Count, Observed, Median [2, 26]: 0.0
Tender Joint Count, Observed, Median [2, 26]: 4.0
Swollen Joint Count, Observed, Mean (SD) [2, 27]: 0.0 (0.00)
Swollen Joint Count, Observed, Median [2, 27]: 0.0
Tender Joint Count, Observed, Median [2, 27]: 4.0
